Experimental data reported in the supplement of paper PMC4166925.
± gives the standard deviation of the averaged measurements. The full ranking holds about 33,000 sequences; the median of “E-score (dimensionless, -0.5 to 0.5)” is about -0.046, and the highest 2% start at about 0.36. This is one part of the list.

tested on: T1, SpTbr T-box DNA-binding domain (GST fusion); experiment: PBM E-score of 8-mer (E-score (dimensionless, -0.5 to 0.5)); Tbr is Tbrain of the sea star Patiria miniata (Pm) or the sea urchin Strongylocentrotus purpuratus (Sp); higher = stronger binding preference; most listed sequences are background and not binding sites; conditions: the construct has about 5 more residues each side
T1 sequence: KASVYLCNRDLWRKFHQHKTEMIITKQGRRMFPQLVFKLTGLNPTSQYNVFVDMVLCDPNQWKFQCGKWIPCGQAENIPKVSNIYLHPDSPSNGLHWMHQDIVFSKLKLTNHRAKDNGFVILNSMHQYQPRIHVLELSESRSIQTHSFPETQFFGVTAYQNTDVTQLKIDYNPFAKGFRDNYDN
Summary of the method: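 Universal Agilent oligonucleotide arrays, made double-stranded by primer extension, were incubated with 200 nM GST-fused Tbr T-box DNA-binding domain in PBS (pH 7.5). The protein was expressed in BL21 E. coli at 20 °C and purified by glutathione affinity chromatography. After scanning and quantification, the Universal PBM Analysis Suite assigned an enrichment E-score to each ungapped 8-mer, averaged over duplicate arrays.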

Sequence	PBM E-score of 8-mer
ACTAAAAG	0.00605 ± 0.11
GCTAGATA	-0.123 ± 0.045
TATAGTCA	0.0371 ± 0.032
GTATGGTA	-0.228 ± 0.018
CCAGACTC	-0.269 ± 0.021
AAGCTGAG	-0.052 ± 0.032
CTAAGAGA	-0.216 ± 0.017
CGAGAACC	0.184 ± 0.018
CCCCTAGG	-0.0502 ± 0.012
GAGAGCAC	0.0632 ± 0.013
GACAGTAC	-0.0333 ± 0.049
GAATCTAC	-0.235 ± 0.048
CTTAGTTC	-0.216 ± 0.048
ACCGTTCT	0.0197 ± 0.05
AAGACGGC	0.115 ± 0.0055
GAGTGCAA	0.0398 ± 0.012
TCAAAGGA	-0.189 ± 0.035
CGCAATGC	0.0511 ± 0.0051
ACCACAGT	0.0252 ± 0.11
ATGTTATG	-0.0111 ± 0.033
GTAGATAC	-0.268 ± 0.076
CACCACTA	0.181 ± 0.013

Sequence	PBM E-score of 8-mer
CAGGACCC	-0.238 ± 0.028
CGCAGTGA	-0.0257 ± 0.037
ATTGTAAC	0.0531 ± 0.038
CCAGGACG	-0.125 ± 0.059
GCAGGTCC	-0.259 ± 0.039
CCACGAAC	0.0807 ± 0.05
ACATGACG	0.135 ± 0.029
CAAAATTA	0.1946 ± 0.0015
CCCCAAGG	0.192 ± 0.0075
CTGCTTCA	0.0128 ± 0.0049
CCAACTGA	-0.103 ± 0.0021
AAACATGT	0.00992 ± 0.11
CGTCATAA	-0.00366 ± 0.035
AAATCCAC	-0.0225 ± 0.078
GTTGCACA	0.0981 ± 0.012
ATTCACAG	0.395 ± 0.025
ATGAGAGG	-0.118 ± 0.006
AGCCCGTA	-0.124 ± 0.097
ACGAAGAA	-0.169 ± 0.0023
AGAGCTTG	-0.238 ± 0.017
GTACGATA	-0.21 ± 0.017
AACGTTTA	-0.187 ± 0.062

Sequence	PBM E-score of 8-mer
GCCACTCC	-0.0728 ± 0.039
ACGGAATA	0.107 ± 0.0055
ACGCCGGA	-0.047 ± 0.017
CCCGTCGC	0.0384 ± 0.034
AAACACCC	0.1718 ± 0.0003
AGACTTTG	-0.0212 ± 0.042
AGGGGGGG	-0.281 ± 0.018
ACTGCTAG	0.0381 ± 0.029
AATTTTGA	-0.127 ± 0.033
GATCAGTA	-0.163 ± 0.029
CCAAGGAA	-0.0592 ± 0.03
CCCGTCGA	-0.0711 ± 0.015
GATAAAAA	0.0565 ± 0.075
AAAGTGTC	0.39331 ± 0.00039
ACTATGGA	-0.251 ± 0.0092
ATATACTG	-0.241 ± 0.11
ATTTTTTC	-0.138 ± 0.032
AGGCAAGC	-0.0153 ± 0.022
CCAAGTAG	0.0306 ± 0.035
CCTGGTCG	-0.0356 ± 0.014
CGAGATTC	0.0466 ± 0.066
CATGATAC	-0.244 ± 0.02

Sequence	PBM E-score of 8-mer
CTGGCTGC	-0.103 ± 0.0078
CGTCCCTA	-0.0382 ± 0.032
CGAATGAA	-0.0859 ± 0.013
CTTTTGCC	-0.0897 ± 0.07
GGACAGCA	-0.127 ± 0.014
GAGACCCC	-0.0869 ± 0.047
ATTTCCTG	-0.0621 ± 0.052
CGGAAGGA	-0.246 ± 0.007
ACTGATAC	0.189 ± 0.025
ATTGACAC	0.418 ± 0.0052
AAATCTGC	-0.0436 ± 0.0086
GCTCGCCC	-0.196 ± 0.039
ATGGTTCA	-0.0498 ± 0.015
CTAGCATA	-0.027 ± 0.031
GATAACTA	-0.00475 ± 0.0059
AACCCGTA	-0.256 ± 0.051
CTGAGCGC	-0.0282 ± 0.0093
AAGGAGTC	-0.0918 ± 0.048
CTTGATCC	-0.106 ± 0.03
AAATGGTA	-0.152 ± 0.041
